Data taken from ChEMBL document CHEMBL1201862, “PubChem BioAssay data set” (2004).
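How tested: cells in 96-well plates exposed to compound for 48 hours at five concentrations. At the GI50, growth is halved.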 The source made the active and inactive calls. No stated cut-off is given here; in the data, active = GI50 up to about 1.1 µM and inactive = higher.

Test system: NCI-H322M
Experiment: NCI tumour cell line growth inhibition, 48 h

| Structure (SMILES) | GI50 |
| --- | --- |
| CN(O)C(=O)c1ccccc1 | inactive: > 100 µM |
| CC(=O)Nc1ccc(-c2nc3ccccc3s2)cc1 | inactive: 29.5 µM |
| Oc1cccc(-c2nc3ccccc3s2)c1 | inactive: 48.9 µM |
| CC1(CO)OC(n2cnc3c(N)ncnc32)C(O)C1O (configuration not stated) | inactive: > 100 µM |
| CCCNC(=O)c1cc(NC(=O)c2cc(NC(=O)/C=C/c3ccccc3)c(OC)c(OC)c2)c(OC)c(OC)c1 | inactive: 5.51 µM |
| CSc1nc(Cl)c2c(n1)Sc1nc3ccccc3n1C2O (configuration not stated) | inactive: 24.8 µM |
| CC(C1CCCC1=O)C1CCCC1=O (configuration not stated) | inactive: 81.1 µM |
| N#CC1C(=O)SC2c3ccccc3C(=O)c3ccccc3C12 (configuration not stated) | inactive: > 10 µM |
| O=C(N/N=C/c1ccc(Cl)cc1)c1cc(I)cc(I)c1O | inactive: > 100 µM |
| BrCC[N+]12CCCN1CCC2 | inactive: 17.5 µM |
| COc1ccc(N2C(=O)C3c4[nH]c5ccc(OCc6ccccc6)cc5c4C4CCC(C(C)(C)C)CC4C3C2=O)cc1 (configuration not stated) | inactive: > 100 µM |
| O=C1C(c2ccc([N+](=O)[O-])cc2)=[N+]([O-])c2ccc([N+](=O)[O-])cc21 | inactive: > 100 µM |
| CC(=O)NC(CCCN(Cc1ccccc1)C(=O)N(C)N=O)C(=O)NCc1ccccc1 (configuration not stated) | inactive: > 100 µM |
| CCN1CCC(O)(/C=C/c2cccc(C)c2)C(C(=O)/C=C/c2cccc(C)c2)C1 (configuration not stated) | inactive: 4 µM |
| COc1ccc(C[C@H](N)C(=O)N2C[C@H](CO)C[C@H](n3ccc(=O)[nH]c3=O)C2)cc1 | inactive: > 100 µM |
| N#CCCC(CCC#N)(CCC#N)NO | inactive: > 100 µM |
| CC(=O)Oc1ccc2c3c1[C@H]1O[C@H]1c1cccc(c1-3)[C@@H]1O[C@H]21 | inactive: 14.8 µM |
| CC[C@@]1(O)C(=O)OCc2c1cc1n(c2=O)Cc2c-1nc1ccccc1c2/C=N\NC(=O)C(N)CO (some centres not stated) | inactive: 9.77 µM |
| Cc1[nH]c(=O)c2oc3cc4ccccc4cc3c2c1C(=O)O | inactive: > 10 µM |
| O=C(CC1(O)C(=O)Nc2c(Cl)ccc(Cl)c21)c1ccc(Cl)cc1 (configuration not stated) | inactive: 50.4 µM |
| CCCCN(C)/N=N/c1[nH]cnc1C(N)=O | inactive: > 100 µM |
| O=C(Cc1ccccc1)NN1C(=O)C(Cl)C1c1ccccc1 (configuration not stated) | inactive: > 100 µM |
| COc1cc(S(=O)(=O)Nc2ccc(-c3csc(/N=C\c4cccc(Oc5ccccc5)c4)n3)cc2)ccc1Cl | inactive: 17.8 µM |

| Structure (SMILES) | GI50 |
| --- | --- |
| COc1ccc2c(c1)[C@@H](NC(C)=O)CCc1cc(OC)c(OC)c(OC)c1-2 | active: 0.0199 µM |
| CC1=CC[C@@H]2[C@@H](CC[C@@]2(C)O)C(C)(C)[C@H]1CC[C@@H]1[C@@]2(C)CCC(=O)C(C)(C)O[C@@H]2CC[C@]1(C)O | inactive: 44.4 µM |
| N#Cc1cccc(/C=N/N/C(N)=N/O)c1 | inactive: 39.8 µM |
| COc1ccc(C)cc1C1CCC(=O)O1 (configuration not stated) | inactive: > 100 µM |
| Cc1ccc(S(=O)(=O)NC(=O)Nc2ccc(C(=O)O)cc2)cc1 | inactive: > 100 µM |
| Cc1ccc(S(=O)OCC23CC4CC(CC(C4)C2)C3)cc1 (configuration not stated) | inactive: > 100 µM |
| Cc1cc(S(=O)(=O)Nc2nc3cc(-c4ccc(Cl)cc4)sc3c(=O)n2N)c(S)cc1Cl | inactive: 53.1 µM |
| Cc1cc(C)nc(NS(=O)(=O)c2ccc(Nc3c4ccccc4nc4c(C(=O)N5CCN(CCOS(C)(=O)=O)CC5)ccc(Cl)c34)cc2)n1 | inactive: > 100 µM |
| CC(C)(C)c1ccc(-n2c3nc(=O)n(-c4ccccc4CO)c(=O)c-3cc3ccccc32)cc1 | inactive: 35.2 µM |
| O=C(/C=C/c1ccc(OCc2ccccc2)c(OCc2ccccc2)c1)OCc1ccccc1 | inactive: > 100 µM |
| CCC(c1ccc(OC)cc1)C1NC(=S)NC1=O (configuration not stated) | inactive: > 50 µM |
| CC(=O)OCC1OC(N2C(=O)NC(=O)C3C=C4CCCCC4=CC32)C(OC(C)=O)C1OC(C)=O (configuration not stated) | inactive: > 100 µM |
| CN(C)c1nc(N(C)C)sc(=O)n1 | inactive: > 100 µM |
| CC(C)(C)OC(=O)NC(Cc1ccc(OCc2ccccc2)cn1)C(=O)N1CCCC1 (configuration not stated) | inactive: > 100 µM |
| NC(=O)N/N=C1/CCCC/C1=C\c1ccccc1 | inactive: > 100 µM |
| Cn1c(=O)n2c(-c3ccccc3)c(-c3ccccc3)n2c1=O | inactive: > 100 µM |
| Clc1ccc2c(c1)[nH]c1c2nc2ccccn21 | inactive: 39 µM |
| N#Cc1c(=O)c2cccnc2n2c1[nH]c1ccccc12 | inactive: > 100 µM |
| O=C(N/N=C/c1cc(-c2ccccc2Cl)c(-c2ccccc2Cl)o1)c1ccncc1 | inactive: > 100 µM |
| O=c1[nH][nH]c(=O)c2c1ccc1oc3ccccc3c12 | inactive: > 100 µM |
| COc1c(C(=O)NCCN(CCNC(=O)c2cccc(-c3cccc(C(=O)N(C)C)c3OC)c2OC)CCNC(=O)c2cccc(-c3cccc(C(=O)N(C)C)c3OC)c2OC)cccc1-c1cccc(C(=O)N(C)C)c1OC | inactive: 45.3 µM |
| CC(C)CCCC(C)[C@H]1CC[C@H]2[C@@H]3CC[C@H]4C[C@@H](CCC=C(c5cc(Cl)c(O)c(C(=O)OC(C)(C)C)c5)c5cc(Cl)c(O)c(C(=O)OC(C)(C)C)c5)CC[C@]4(C)[C@H]3CC[C@]12C (some centres not stated) | inactive: > 50 µM |
| O=[N+]([O-])c1ccccc1C1SCc2nc3ccccc3n21 (configuration not stated) | inactive: > 100 µM |

| Structure (SMILES) | GI50 |
| --- | --- |
| CCOC(=O)/C(C(=O)Nc1ccc(Cl)cc1)=C(/N)N1CCOCC1 | inactive: > 100 µM |
| CN1CCN(C(=S)N(C)C(=O)c2ccco2)CC1 | inactive: > 100 µM |
| O=C(Nc1ccc(Cl)cc1)C(=O)C1=C(O)c2ccccc2OC1 | inactive: > 100 µM |
| CCCC(=O)OC[n+]1ccc(-c2c(COC(=O)NC(C)C)c(COC(=O)NC(C)C)c3n2CCC3)cc1 | inactive: > 100 µM |
| Oc1c(OCc2nnc(CCCCCCCCc3nnc(COc4ccc5ccccc5c4O)o3)o2)ccc2ccccc12 | inactive: > 100 µM |
| CC1=CCC[C@]2(C)C1=CC(=O)O[C@H]2c1ccoc1 | inactive: > 100 µM |
| N#Cc1cc2c(n(C3OC(CO)C(O)C(O)C3O)c1=S)CCC2 (configuration not stated) | inactive: > 100 µM |
| O/N=C1/CCCCC1NO (configuration not stated) | inactive: > 100 µM |
| O=P(O)(O)C1CCCC(P(=O)(O)O)N1 (configuration not stated) | inactive: > 100 µM |
| COc1cc2nc(-c3cccs3)nc(Nc3cccc(Cl)c3)c2cc1OC | inactive: 34.2 µM |
| COC(=O)C1=C(C(=O)OC)C(C(=O)c2ccccc2)N2N=C(c3ccc(Cl)cc3)C=CC12 (configuration not stated) | inactive: > 100 µM |
| O=[N+]([O-])c1cccc2nccc(NCC(O)CO)c12 (configuration not stated) | inactive: 11.1 µM |
| Cc1ccccc1C(=N)c1ccccc1Cc1cccc2ccccc12 | inactive: 31.8 µM |
| CCOC(=O)c1c2c(n(-c3ccc(C)cc3)c1C)-c1ccccc1C(=O)C2(C(=O)OCC)C(=O)OCC | inactive: 69.2 µM |
| O=C(/C(=C\c1ccccc1)CN1CCOCC1)c1ccc(Br)cc1 | inactive: 8.17 µM |
| CCOC(=O)N(CC)c1c(C(F)(F)F)cc(-c2ccccc2)[nH]c1=O | inactive: 71.3 µM |
| O=C(O)C[n+]1cn(NC(=O)Cc2ccccc2)cn1 | inactive: > 10 µM |
| CC1=C(C(=O)NCc2ccccc2)C(c2ccccc2C)C(C(=O)NCc2ccccc2)=C(C)N1 | inactive: 40.1 µM |
| Cc1ccc(C(=O)c2[nH]c(Nc3ccc(Cl)cc3)c(C(=S)Nc3ccccc3)c2N)cc1 | inactive: 7.94 µM |
| C/C(=N\NS(=O)(=O)c1ccc(C)cc1)c1cc2ccccc2n1C | inactive: 45.5 µM |
| COc1ccc([S+]([O-])Cc2cc(OC)ccc2OC)cc1 (configuration not stated) | inactive: > 100 µM |
| CCCCCc1c(CCCC)c(O)nc2nc(NC(=O)CCCC)ccc12 | inactive: > 100 µM |
| CCOC(=O)C(=Cn1c(=S)[nH]c2ccc([N+](=O)[O-])cc21)C(=O)OCC | inactive: > 100 µM |

| Structure (SMILES) | GI50 |
| --- | --- |
| N#Cc1nc(Cc2cccs2)oc1N | inactive: > 100 µM |
| CC1=CC(=O)C(=CN2C(=O)/C(=C\c3cccnc3)NC2=S)C(=O)O1 | inactive: > 100 µM |
| CC1C2(C)OC(=N)C(C#N)(C(c3cccc([N+](=O)[O-])c3)O2)C1(C#N)C#N (configuration not stated) | inactive: > 100 µM |
| O=C1C(Cl)=C(Cl)C(=O)C2=C1C1c3ccccc3C2c2ccccc21 | inactive: 56.9 µM |
| CCCCCC(/C=C/[C@@H]1CC(=O)C[C@H]1O[Si](C)(C)C(C)(C)C)OCOCCOC (some centres not stated) | inactive: 16 µM |
| CC(C)(C)OC(=O)CN1C(=O)CC1CC(=O)c1ccccc1 (configuration not stated) | inactive: 17.8 µM |
| COC(CC1(/C=C/O[Si](C(C)C)(C(C)C)C(C)C)C(=O)N(COCC[Si](C)(C)C)c2ccccc21)OC (configuration not stated) | inactive: 81.8 µM |
| Cc1c(C(=O)OCc2ccccc2)[n+]([O-])c2cc(F)c(F)cc2[n+]1[O-] | inactive: 2.58 µM |
| CCCCOC(=O)C(O)Cc1ccoc1 (configuration not stated) | inactive: > 100 µM |
| c1ccc2c(c1)n1nnnc1c1nnnn21 | inactive: > 100 µM |
| CCOC(=O)/C(C#N)=C/Nc1c(C)n(C)n(-c2ccccc2)c1=O | inactive: > 100 µM |
| COc1ccc(/C=C2\Sc3nnc(CNc4ccc(Cl)cc4)n3N=C2c2cc(F)c(Cl)cc2Cl)cc1OC | inactive: > 100 µM |
| Cc1sc2nc3n(c(=O)c2c1C)N=CN(c1ccc(F)cc1)C3 | inactive: > 100 µM |
| CCOC(=O)C1=CNC(C(=O)OCC)C1c1cccn1-c1ccccc1 (configuration not stated) | inactive: 32.8 µM |
| Nc1cc(CO)cc(Nc2nc3ccc(Cl)cc3c3[nH]c4ccccc4c23)c1 | inactive: 6.3 µM |
| Cc1cc(=O)nc(S(=O)(=O)NC(=S)Nc2ccc(Cl)cc2)[nH]1 | inactive: > 100 µM |
| COc1cccc(NC(=O)CC(=O)N2N=C(N3c4ccccc4Sc4ccccc43)CC2c2ccccc2)c1 (configuration not stated) | inactive: > 100 µM |
| O=[N+]([O-])/C=C/c1ccc2ccccc2c1 | inactive: 24.2 µM |
| Nc1ncnc2c1ncn2[C@]1(CO)C=C(CO)C(O)C1O (some centres not stated) | inactive: > 100 µM |
| CN(C)CCNC(=O)c1cc([N+](=O)[O-])cc2c1Oc1ccccc1O2 | inactive: 27.9 µM |
| Cc1cc2c(nn1)-c1ccccc1C2=O | inactive: > 10 µM |
| COc1ccc2c(c1)CCc1cc(OC)ccc1/[N+]([O-])=[N+]\2[O-] | inactive: 28.7 µM |
| COc1cc2c(cc1OC)C(=O)/C(=C/c1cc(C)cc(C)c1)C2 | active: 0.0869 µM |
